SMILES strings stand for the structures. Out of some 48,000 compounds screened, about 120 (0.25%) were called active. Inconclusive results (about 4%) are left out. Calls follow the shape of the dose curve; as a rule, active = well fitted activation curve with a large enough effect; inconclusive = small, poorly fitted or top-dose-only effect, or another doubt; inactive = no such curve, though single readings can be large or run the other way. Some of the results follow.

This test in a line: Primary qHTS for Identification of Small Molecule Activators of Huntingtin-Antisense Promoter Activity. Also: nearly all actives have a fitted effect of over 55% in size. The conditions noted are these: HEK293 HTT-AS promoter firefly luciferase reporter, 24 h; series mostly up to 57.5 µM; activity change, positive = activation: at the top concentration. In a few lines: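 Quantitative HTS used concentration series of up to 57.5 uM final on HEK293 luciferase reporter cells, 24 h at 37 degrees C. Readout was Dual-Glo firefly luminescence.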
On the technique in general: qHTS replaces the single test concentration by a dilution series.
Turning to `COC(=O)c1cc2oc(C)cc2n1CC(=O)Nc1ccc(OC)c(OC)c1`, the “activity change, positive = activation” value was inactive: -13.9%.
The figure for `COC(=O)c1ccc(NC(=O)CSc2nccn2Cc2ccc(Cl)cc2)cc1` is inactive: -8.3%; for `CCOc1ccc(-n2c(=O)c3c(C)c(C)sc3n(Cc3c(F)cccc3Cl)c2=O)cc1` it is inactive: -1.3%.
`Cc1cc(O)c(C(c2ccccc2)N2CCN(c3ccccc3F)CC2)c(=O)n1Cc1ccco1` (stereo unspecified): the “activity change, positive = activation” value is inactive: 7.26%.
The figure for `CCOC(=O)[C@@](C)(N)Cc1ccc(O)c(O)c1` is inactive: 20.8%.
Take `CCC(=O)N1CCc2cc(Br)cc(S(=O)(=O)CCC(=O)NCc3ccc(C)cc3)c21`: the “activity change, positive = activation” value was inactive: 10.8%.
For `COC(=O)c1sc(S(=O)(=O)N2CCN(c3ccc(OC)cc3)CC2)c(C(=O)OC)c1C`, the “activity change, positive = activation” value was inactive: -33.6%.
Regarding `COc1ccc(CNC(=O)C(=O)Nc2ccccc2OC)cc1`, the activity change, positive = activation was inactive: -15.8% [at 11.5 µM, percent change from vehicle, -100% = no light].
Take `COc1ccc(OC)c(NC(=O)CSc2nccn2-c2cc(C)cc(C)c2)c1`: the “activity change, positive = activation” value is inactive: -24.5%.
Regarding `COc1cc(NC(=O)CN2C(=O)C(c3ccc(C)cc3)=NC23CCCCCC3)cc(OC)c1`, the “activity change, positive = activation” value was inactive: -21.6%.
As for `CC(=O)Nc1c(C)nn(-c2ccccc2)c1N1CCC(C(=O)Nc2ccc(Cl)cc2C)CC1`, the “activity change, positive = activation” value is inactive: 11.8%.
Take `Cc1ccc(-c2nc3ccccc3[nH]2)cc1NC(=O)COc1ccc(Cl)cc1Cl`: the “activity change, positive = activation” value is inactive: -13.8%.
Regarding `O=C(c1ccccc1)c1ccc2n1CCC2C(=O)O` (stereo unspecified), the activity change, positive = activation result was “inactive”.
Take `CCc1nnc(SC(CC)C(=O)NCCOC)c2cc3occc3n12` (stereo unspecified): the “activity change, positive = activation” value is inactive: -27.8%.
For `CCc1cccc(NC(=O)Cn2c(=O)n(Cc3ccccc3)c(=O)c3c(C)c(C(=O)N(C)C)sc32)c1`, the “activity change, positive = activation” value is inactive: -19.4%.
The figure for `CN1CCN(C(=O)c2cnn(-c3ccccc3)c2C2CCN(C(=O)OC(C)(C)C)CC2)CC1` is inactive: -15.6%; for `CCOc1ccccc1N(C)C(=O)c1cc(S(=O)(=O)NCc2ccc(C)cc2)ccc1F` it is inactive: -36.3%; for `Cc1cccc(NC(=O)CSc2nc(C)cc(C)c2C(=O)Nc2ccc(Cl)cc2)c1` it is inactive: -13.6%.
Take `Cc1ccc(C)c(NC(=O)Cn2cc(S(=O)(=O)N3CCCC3)c(S(=O)(=O)N3CCCC3)c2)c1`: the “activity change, positive = activation” value is inactive: -2.97%.
Consider `COc1ccc(Cl)cc1NC(=O)c1cc(=O)c2cc(C)cc(C)c2o1`, for which the activity change, positive = activation is inactive: 8.77% [at 11.5 µM, percent change from vehicle, -100% = no light].
As to `CCc1nn2c(=O)cc(COC(=O)c3cccc(NC(=O)COc4ccccc4F)c3)nc2s1`, the “activity change, positive = activation” value is inactive: -35.2%.
Regarding `CCc1ccc2c(c1)c(=O)c(S(=O)(=O)c1ccccc1)cn2CC(=O)Nc1cc(C)ccc1C`, the “activity change, positive = activation” value was inactive: -5.66%.
For `COc1cc(NC(=O)CN(C)S(=O)(=O)c2ccc3c(c2)CCCC(=O)N3)cc(OC)c1OC`, the “activity change, positive = activation” value is inactive: -18.7%.
On to `CCC(=O)C1=C(c2cccc([N+](=O)[O-])c2)N(C(=O)CC)n2c(nnc2C2CCCCC2)S1`, for which the “activity change, positive = activation” value is inactive: -18.6%.
Turning to `OCc1ccccc1O`, the “activity change, positive = activation” value is inactive: -1.16%.
The figure for `COc1ccc(-c2nc3ccccc3o2)cc1NC(=O)COc1c(C)cc(Cl)cc1Cl` is inactive: 28.3%.
With `C=C1C(=O)OC(CCCCCCCC)C1C(=O)O` (stereo unspecified), the “activity change, positive = activation” value is inactive: -47.9%.
For `Cc1ccc(CCNC(=O)Cn2ncc3c(=O)oc4ccccc4c32)cc1`, the “activity change, positive = activation” value is inactive: -15.9%.
The figure for `Cc1ccccc1-c1nc(CS(=O)(=O)CC(=O)Nc2c(C)cccc2C)c(C)o1` is inactive: -38.7%; for `Cc1cccc(-c2nc3c4ccccc4n(CC(=O)Nc4cccc(F)c4)c(=O)n3n2)c1` it is inactive: 21.9%; for `CCN(CC)CCCC(C)Nc1nc(C)cc(Nc2ccc3nc(C)cc(N)c3c2)n1` (stereo unspecified) it is inactive: -3.04%.
Regarding `CC(C)(C)OC(=O)N1CCC(c2c(C(=O)N3CCN(c4ccccc4F)CC3)cnn2C(C)(C)C)CC1`, the “activity change, positive = activation” value is inactive: -31.6%.
For `COC(=O)c1cc2sc(C)cc2n1Cc1nc(-c2cccc(Br)c2)oc1C` the value was inactive: 1.6%; for `CCOC(=O)C1CCN(c2csc3ccc(C)cc3c2=O)CC1`, inactive: -21.5%.
On to `COc1ccc(N2C(=O)CS(=O)(=O)C23C(=O)N(Cc2ccccc2)c2ccccc23)cc1` (stereo unspecified), for which the “activity change, positive = activation” value is inactive: -23.7%.
The figure for `COc1cccc(-c2nc(S(=O)(=O)c3ccc(C)cc3)c(NCc3ccccc3)o2)c1` is inactive: -3.86%; for `CCN1CCN(c2cc(C)c3cc(NC(=O)c4cc(OC)c(OC)c(OC)c4)ccc3n2)CC1` it is inactive: -13.4%.
As for `CCOc1ccc(-c2nc(CSCC(=O)NCCc3ccccc3)c(C)o2)cc1`, the “activity change, positive = activation” value was inactive: -49.5%.
For `Clc1cccc(N2CCN(c3nc4ccccc4c4nc(-c5ccccc5)nn34)CC2)c1`, the “activity change, positive = activation” value was inactive: -5.02%.
Consider `CCc1ccc2oc(C(=O)N(Cc3cccc(Cl)c3)Cc3ccco3)c(C)c2c1`, for which the “activity change, positive = activation” value is inactive: -25.8%.
Regarding `Cc1cc(C)cc(NC(=O)Cn2c(=O)n(CCC(C)C)c(=O)c3cccnc32)c1`, the “activity change, positive = activation” value was inactive: -15.1%.
`Cn1c(=O)cc(SCC(=O)NCCc2ccc(Cl)cc2)c2cc(Cl)ccc21`: the “activity change, positive = activation” value was inactive: -19.1%.
As for `COc1cccc(CNC(=O)CCCn2c(=O)c3cccn3c3ccc(F)cc32)c1OC`, the “activity change, positive = activation” value was inactive: -11.3%.
The figure for `COc1ccc(-c2cc(C(C)=O)c(C)n2CCC(=O)Nc2cccc(C)c2C)cc1` is inactive: -16.4%; for `O=C(Cn1c2ncccc2c(=O)n1-c1ccccc1)Nc1cccc(C(F)(F)F)c1` it is inactive: -23.1%.
On to `O=C(CSc1nc2ccccc2c2nc(-c3ccccc3)nn12)Nc1ccc(F)cc1`, for which the “activity change, positive = activation” value was inactive: 2.85%.

The values above are taken from PubChem BioAssay AID1508624 (National Center for Advancing Translational Sciences (NCATS), 2021).
